Laboratory results: article PMC8188729 (Nature, 2020)
Where two headings read alike, the source gives them in different places.

Tested on: HIV-1 CA mutants
Type: cell-based
Details: mutant/WT EC50 ratio

## CC(C)(C#Cc1ccc(-c2ccc(Cl)c3c(NS(C)(=O)=O)nn(CC(F)(F)F)c23)c([C@H](Cc2cc(F)cc(F)c2)NC(=O)Cn2nc(C(F)(F)F)c3c2C(F)(F)[C@@H]2C[C@H]32)n1)S(C)(=O)=O [GS-6207]
HIV-1 CA Q67H N74D
  Fold GS-6207 resistance: 1,099
HIV-1 CA Q67H N74S
  Fold GS-6207 resistance: 32
HIV-1 CA Q67H T107N
  Fold GS-6207 resistance: 62
